This is one part of the list.

In this assay the test system is T1, C. trachomatis L2/434/Bu expressing GFP (CTL2-GFP).
T1 construct: L2/434/Bu GFP intracellular growth in HeLa cells
Further details: species or system HeLa; C. trachomatis total inclusion area by high-content imaging, normalised to DMSO. Particulars: total inclusion area; 28.5 h, 10 µM; inhibitor. The method, boiled down: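 High-content imaging followed the bulk GFP/resorufin measurement: fixed, Hoechst-stained cells were scored for GFP inclusions and host nuclei per well. Total inclusion area and count served as growth proxies, nuclei number as the viability proxy. MIC calculation matched the bulk assay.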
Turning to `O=C(CCS(=O)(=O)c1ccccc1)Nc1cncc(OC2CCNCC2)n1` [CBK028438T], the “% of control remaining” value is reported as 87.2461.
To `Cc1ccc2[nH]cc(CCNC(=O)c3cccc(NC(=O)c4ccccc4)c3)c2c1` [CBK269235] belongs 92.8019; to `O=C(/C=C\c1ccco1)Oc1ccc(/C=N\NC(=O)c2cncc(Br)c2)cc1` [CBK261385], 105.638; to `CCn1cc(-c2cncn2CCCN2CCCCC2)cn1` [CBK281767], 73.4223.
To `Cc1nn([C@H]2C[C@@H](O)[C@@H](CO)O2)c(=O)[nH]c1=O` [CBK201185] belongs 119.165.
To `CCC(Oc1ccccc1F)C(=O)Nc1cc(C)on1` (centres unmarked) [CBK305558] belongs 81.4804; to `Cc1ccc(-c2c(C(=O)NNC(=S)NCC3CCCO3)csc2C)cc1` (centres unmarked) [CBK267062], 92.0374.
For `COCCN(Cc1cnn(C)c1)C(=O)c1cc(=O)c2cccc(F)c2[nH]1` [CBK306651], the “% of control remaining” value was 64.2806.
Regarding `c1ccc(OCCN2CCCN(c3nccc(OCCN4CCOCC4)n3)CC2)cc1` [CBK083940], the “% of control remaining” value is given as 63.0255.
Turning to `O=C(c1cc(F)c(F)cc1F)N1CCC2(CCCN(Cc3ccc4ccccc4c3)C2)C1` (centres unmarked) [CBK131998], the “% of control remaining” value is 71.3189.
In the case of `O=C(CCOc1ccccc1)Nc1c(F)cc(F)cc1OC1CCNCC1` [CBK045897T], the “% of control remaining” value is 67.6741.
`COC(=O)N1CCCCC1C(=O)NCCc1nc(C)cc(C(F)(F)F)n1` (centres unmarked) [CBK306752]: the “% of control remaining” value is recorded as 54.0279.
To `c1cnc(N2CCCC2)c(OCc2ccsc2)n1` [CBK115664] belongs 94.0767; to `CC(C)OCC1CN(c2cc(CO)c(F)cn2)CCO1` (centres unmarked) [CBK304755], 81.926.
Take `COc1cc(C2N(Cc3ccccc3)CCN2Cc2ccccc2)ccc1OC(C)=O` [CBK261349]: the “% of control remaining” value was found to be 104.24.
To `Cc1ccc(C2=NO[C@@](CC(=O)O)(C(=O)Nc3ccc4c(c3)OCCO4)C2)cc1` [CBK286653] belongs 67.2785; to `Cc1nccn1CC1CCCN(Cc2ccnc3ccccc23)C1` (centres unmarked) [CBK281966], 118.686.
To `CC1CCCN(C(=O)CCn2c(-c3ccncc3)cc3cccnc32)C1` (centres unmarked) [CBK282152] belongs 104.206.
Turning to `CC(C)Cc1cc(CNS(=O)(=O)Cc2ccccc2F)on1` [CBK281505], the “% of control remaining” value came out at 64.627.
For `O=C1Oc2nc3ccccc3cc2CN1C1CC1` [CBK282870] the value was 0.4218; for `Cc1nn(-c2ccccc2)c(Cl)c1CN1C(=O)NC2(CCCCC2)C1=O` [CBK306043], 81.2134; for `Cc1cccnc1NC(=O)c1cc(O)nc2ccccc12` [CBK300499], 121.285.
To `O=C(NC1CCCCC1)N[C@H]1CO[C@H]2[C@@H]1OC[C@@H]2Nc1nccc(C2CCCC2)n1` [CBK289531] belongs 103.532; to `Clc1ccc(Cl)c(-c2nc3ccccc3o2)n1` [CBK095353], 84.2511; to `O=C(C1C2CCCCC21)N1CCC(Oc2cccc(F)c2)CC1` (centres unmarked) [CBK282216], 98.5071.
In the case of `CCCCc1cc(=O)[nH]c(NCc2ccc(C(F)(F)F)cc2)n1` [CBK003946], the “% of control remaining” value is reported as 89.1202.
In the case of `COc1ccccc1NC(=O)CN(c1ccc(C)cc1)S(=O)(=O)c1ccc(F)cc1` [CBK262718], the “% of control remaining” value is listed as 95.8539.
As for `COc1cccc(-n2nnc3c(SCC(N)=O)ncnc32)c1` [CBK287543], the “% of control remaining” value is reported as 55.8777.
Consider `Cc1ccc(OCC(=O)NCC(c2cccs2)N2CCOCC2)cc1C` (centres unmarked) [CBK306143], for which the “% of control remaining” value turned out to be 74.9154.
As for `CC1Cc2cc(C(=O)N3CCCCC3CN(C)C)ccc2O1` (centres unmarked) [CBK282193], the “% of control remaining” value was 100.866.
Regarding `O=C(CN1CCCCC1)Nc1ccc(NC(=O)CN2CCCCC2)c(Cl)c1` [CBK264173], the “% of control remaining” value was determined as 112.808.
With `CCc1nnc(SCC(=O)Nc2ccc(CN3CCOCC3)cc2)[nH]1` [CBK306097], the “% of control remaining” value worked out at 60.0994.
For `Cc1nnnn1-c1cc(NC(=O)NCCN2CCOCC2)ccc1F` [CBK306246], the “% of control remaining” value came out at 37.4665.
For `CCN1C(=O)CC2(C1=O)C(=O)N(CCCN(C)S(C)(=O)=O)c1ccccc12` (centres unmarked) [CBK075519] the value was 119.47.
For `COc1ccc(Nc2cc(-c3ccc(CNC(=O)OC(C)(C)C)cc3)ncn2)c(OC)c1` [CBK090757] the value was 88.612; for `COc1ccc(NC(=O)NC(=O)c2ccc(Cl)cc2)c(OC)c1` [CBK269462], 106.053.
For `CCOC(=O)Cc1cc(O)nc(NC(=N)Nc2ccc(C)cc2C)n1` [CBK264986] the value was 103.103; for `N#Cc1ccc(C(=O)NCC2(N3CCOCC3)CCSC2)cc1` (centres unmarked) [CBK305602], 29.9797; for `COc1ccc(Cl)cc1NC(=O)C1CCCN1S(=O)(=O)c1ccc(F)cc1` (centres unmarked) [CBK069866], 94.8243.
Turning to `CN1CCN(NC(=O)COc2ccc(-c3ccccc3)cc2)CC1` [CBK268117], the “% of control remaining” value turned out to be 101.665.
To `CCOC(=O)c1cc(C(C)C)sc1NC(=O)C1C2C=CC(C2)C1C(=O)O` (centres unmarked) [CBK265417] belongs 109.704.

These data come from article PMC12040169 (PLOS Biology, 2025).
